The IC50 comes from the fitted curve, where viability falls to half of the control; where the fit passes the top or lowest dose, that dose stands as a limit. AUC is the area under the same curve over the 256-fold range up to the top dose, as a fraction; values near 1 show little effect. For some assays here: An inferred top dose was derived from the fitted curves, not read from the paper. For some assays here: Drugs with an entry number were screened twice under separate entries, and the two screens often disagree.
Experiments:
Experiment in all cases: Viability of human cancer cell lines after 72 h of drug (GDSC screen)
[1] = compound: Cc1ccc(Nc2nccc(N(C)c3ccc4c(C)n(C)nc4c3)n2)cc1S(N)(=O)=O [Pazopanib]; details: top dose 8 µM
Method: (§1)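 Human cancer cell lines in 384-well plates, medium with 10% serum, drug for 72 h over a 256-fold dose range (nine 2-fold or five 4-fold steps up to the top dose). Adherent lines were fixed and stained with the nucleic acid dye Syto60, suspension lines read with resazurin; signal relative to control wells, capped at 0 and 100%. One two-parameter sigmoid per drug and line, fitted in a mixed model over all curves with the slope shared within a line.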

[2] = compound: CC(C)C[C@@H](C=O)NC(=O)[C@H](CC(C)C)NC(=O)[C@H](CC(C)C)NC(=O)OCc1ccccc1 [MG-132]; details: top dose 1 µM
Method: as §1

[3] = compound: CC(C)[C@H](C(=O)Nc1ccc(C(=O)NO)cc1)c1ccccc1 [AR-42]; details: top dose 5.12 µM; top dose inferred
Method: as §1

[4] = compound: CS(=O)(=O)N1CCN(Cc2cc3nc(-c4cccc5[nH]ncc45)nc(N4CCOCC4)c3s2)CC1 [GDC0941]; details: top dose 4 µM; screen: GDSC drug entry 1527; top dose inferred
Method: as §1

[5] = compound: CCN(CC)CCNC(=O)c1c(C)[nH]c(/C=C2\C(=O)Nc3ccc(F)cc32)c1C [Sunitinib]; details: top dose 8 µM
Method: as §1

[6] = compound: Cn1cc(C2=C(c3ccc(Cl)cc3Cl)C(=O)NC2=O)c2ccccc21 [SB 216763]; details: top dose 10 µM; top dose inferred
Method: as §1

[7] = compound: C[C@]12O[C@H](C[C@]1(O)CO)n1c3ccccc3c3c4c(c5c6ccccc6n2c5c31)CNC4=O [CEP-701]; details: top dose 2 µM; top dose inferred
Method: as §1

| Cell Line | AUC [1] | IC50 [1] [nM] | AUC [2] | IC50 [2] [nM] | AUC [3] | IC50 [3] [nM] | AUC [4] | IC50 [4] [nM] | AUC [5] | IC50 [5] [nM] | AUC [6] | IC50 [6] [nM] | AUC [7] | IC50 [7] [nM] |
| --- | --- | --- | --- | --- | --- | --- | --- | --- | --- | --- | --- | --- | --- | --- |
| SCC-15 (head and neck, adherent) | 0.935 | > 8000 | 0.974 | > 1000 | 0.671 | 1140 | 0.556 | 375 | 0.871 | > 8000 | – | – | – | – |
| DOHH-2 (B-cell lymphoma, suspension) | 0.966 | > 8000 | 0.984 | > 1000 | – | – | – | – | 0.7 | 1800 | 0.951 | > 10000 | 0.598 | 231 |
| KM12 (large intestine, adherent) | 0.941 | > 8000 | 0.743 | 334 | 0.653 | 886 | 0.984 | > 4000 | 0.476 | 429 | 0.966 | > 10000 | – | – |
| TC-71 (Ewing sarcoma, adherent) | 0.971 | > 8000 | 0.917 | > 1000 | 0.397 | 176 | 0.703 | 829 | 0.99 | > 8000 | – | – | – | – |
| LB996-RCC (kidney, adherent) | 0.941 | > 8000 | 0.881 | > 1000 | 0.74 | 1770 | 0.64 | 653 | 0.762 | 3300 | – | – | – | – |
| JAR (urogenital system, adherent) | 0.953 | > 8000 | 0.923 | > 1000 | 0.456 | 244 | 0.893 | > 4000 | 0.763 | 2840 | – | – | – | – |
| GI-1 (glioma, adherent) | 0.629 | 1110 | 0.786 | 412 | 0.45 | 235 | 0.69 | 830 | 0.847 | 5530 | 0.982 | > 10000 | – | – |
| TE-10 (oesophagus, adherent) | 0.988 | > 8000 | 0.724 | 266 | 0.979 | > 5120 | 0.745 | 1240 | 0.734 | 2290 | – | – | – | – |
| MZ7-mel (melanoma, adherent) | 0.958 | > 8000 | 0.723 | 276 | 0.361 | 130 | 0.92 | > 4000 | 0.871 | 7990 | – | – | – | – |
| BC-3 (B-cell lymphoma, suspension) | 0.976 | > 8000 | 0.88 | 849 | 0.429 | 210 | – | – | 0.913 | > 8000 | – | – | – | – |
| SIG-M5 (acute myeloid leukaemia, suspension) | 0.99 | > 8000 | 0.803 | 359 | 0.24 | 72.7 | – | – | 0.688 | 1440 | – | – | – | – |
| ES3 (Ewing sarcoma, adherent) | 0.973 | > 8000 | 0.955 | > 1000 | 0.461 | 249 | 0.812 | 2280 | 0.94 | > 8000 | – | – | – | – |
| SK-LMS-1 (soft tissue, adherent) | 0.962 | > 8000 | 0.675 | 187 | 0.342 | 119 | 0.467 | 204 | 0.821 | 4330 | – | – | 0.274 | 29.7 |
| COR-L88 (small cell lung carcinoma, adherent) | 0.89 | > 8000 | 0.955 | > 1000 | – | – | 0.944 | > 4000 | 0.907 | > 8000 | 0.986 | > 10000 | 0.928 | > 2000 |
| NEC8 (testis, adherent) | 0.926 | > 8000 | 0.572 | 95.2 | 0.278 | 84.3 | 0.851 | 2380 | 0.95 | > 8000 | – | – | 0.638 | 282 |
| HD-MY-Z (Hodgkin lymphoma, adherent) | 0.979 | > 8000 | 0.724 | 271 | 0.552 | 443 | 0.891 | > 4000 | 0.85 | 6140 | – | – | 0.358 | 50.4 |
| KALS-1 (glioma, adherent) | 0.958 | > 8000 | 0.744 | 416 | 0.66 | 1060 | 0.772 | 2150 | 0.884 | > 8000 | – | – | – | – |
| RL95-2 (endometrium, adherent) | – | – | 0.857 | 803 | 0.471 | 267 | 0.925 | > 4000 | 0.733 | 2290 | 0.987 | > 10000 | 0.375 | 56.8 |
| GA-10 (Burkitt lymphoma, suspension) | – | – | 0.747 | 277 | – | – | 0.54 | 315 | 0.529 | 593 | 0.991 | > 10000 | 0.45 | 93.5 |
| Hs-445 (Hodgkin lymphoma, suspension) | 0.958 | > 8000 | 0.815 | 499 | 0.566 | 477 | 0.783 | 1550 | 0.877 | 6990 | – | – | – | – |
| SIMA (neuroblastoma, adherent) | 0.954 | > 8000 | 0.96 | > 1000 | 0.679 | 1080 | 0.909 | > 4000 | 0.98 | > 8000 | – | – | 0.693 | 471 |
| COLO-829 (melanoma, adherent) | 0.965 | > 8000 | 0.683 | 261 | 0.672 | 1220 | – | – | 0.978 | > 8000 | – | – | – | – |
